Structures are written as SMILES.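 These data come from cells grown in 96-well plates and exposed to compound for 48 hours at five concentrations. Abbreviation: GI50, concentration required for 50% inhibition of growth. TGI marks complete inhibition of growth.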

The assay relates to NCI-H322M lung. As to the kind of experiment: NCI tumour cell line growth inhibition, 48 h.
Turning to `O=NN(CCCl)C(=O)NC1CCSc2ccccc21` (stereo not drawn), the TGI was more than 100 µM.

With `CCOC(=O)C1=C(C)N(C)C23OC4(C(=O)OC)CC2c2ccccc2C1N3C4=O` (stereo not drawn), the TGI is more than 100 µM.

On to `Oc1[nH]c2ccccc2c1N=Nc1ccccc1Cl`, for which the TGI is more than 100 µM.

For the compound `CC(C)(C)C(=O)OCOP(=O)(OCOC(=O)C(C)(C)C)C1CCCN(O)C1=O` (stereo not drawn), the GI50 is 0.673 µM and the TGI turned out to be 8.5 µM.

In turn, `CC1=CC(/C=C(\C)CCCc2ccoc2)C2(OC(=O)C(C)=C2O)[C@H]2C1CC[C@@H]2C` (stereo partly drawn) displayed a TGI of 70.1 µM.

For the compound `CCCCCCCCCCCCCCCCCCNc1ccn(C2OC(COP(=O)(O)OCC3OC(n4cc(C)c(=O)[nH]c4=O)CC3O)C(O)C2O)c(=O)n1` (stereo not drawn), the TGI amounted to 37.1 µM.

In turn, `COC(=O)C(C(=O)C(=O)Nc1cccc(OC)c1)c1cnc2ccccc2n1` (stereo not drawn) yielded a TGI of more than 100 µM.

`C=CCNC1=C2C[C@@H](C)C[C@@H](OC)[C@H](OC(=O)CCCCN)[C@H](C)/C=C(\C)[C@@H](OC(N)=O)[C@H](OC)/C=C\C=C(/C)C(=O)NC(=CC1=O)C2=O` yielded a TGI of 25.6 µM.

`C=C(CCCCC)CN1CCCC1[C@@](C)(O)CC(=O)OCC` (stereo partly drawn): the TGI was more than 100 µM.

Take `COc1cc(Nc2cn[nH]c2-c2ccc(Cl)cc2)cc(OC)c1OC`: the GI50 was 18.2 µM and the TGI was more than 100 µM.

Take `CC(=O)O.CC(=O)O.CC(=O)O.CC(=O)O.CC(=O)O.CC(=O)O.O.[Ti].[Ti]`: the GI50 is more than 100 µM and the TGI was more than 100 µM.

Regarding `C#Cc1cccc(Nc2ncnc3cc(OC)c(OCCCCCCC(=O)NO)cc23)c1`, the GI50 was 0.0698 µM and the TGI was 0.416 µM.

Take `COc1ccc(N(C)c2ncnc3occ(C)c23)cc1`: the TGI was more than 100 µM.

Turning to `C[N+](C)([O-])CCC=C1c2ccccc2CCc2ccccc21`, the TGI is more than 100 µM.

Regarding `COc1ccc(C2CC(c3cccc(Nc4ccncc4)c3)=NN2c2cc(Cl)cc(Cl)c2)cc1` (stereo not drawn), the GI50 is 1.85 µM and the TGI was found to be 4.25 µM.

Consider `CC1OC2CC(=O)OC2C2=C1C(=O)c1c(O)cccc1C2=O` (stereo not drawn), for which the GI50 was 0.814 µM and the TGI was 2.13 µM.

On to `N#C/C(C(=O)Nc1ccccc1)=C(/N)N1CCOCC1`, for which the TGI is more than 100 µM.

Take `COc1ccccc1C1C(C(=O)O)=C(CO)Oc2cc3c(cc21)OCO3` (stereo not drawn): the TGI is more than 100 µM.

In the case of `Cc1ccc(Cl)cc1Nc1nc(C(F)(F)F)ccc1C(=O)N1CCN(c2ccc(F)cc2)CC1`, the GI50 was 11.7 µM and the TGI was 29.3 µM.

`Cc1ccccc1N1C(=O)/C(=C/c2ccc(N(CCC#N)CCC#N)cc2)N=C1c1cc([N+](=O)[O-])ccc1Cl` showed a TGI of more than 100 µM.

In the case of `CCOC(=O)Oc1c(OC)cc(C(=O)NC2CCc3cc(OC)c(OC)c(OC)c3-c3ccc(SC)c(=O)cc32)cc1OC` (stereo not drawn), the GI50 was 0.0311 µM and the TGI was more than 70 µM.

`O=C(CCCn1ccnc1[N+](=O)[O-])NCCn1cncc1[N+](=O)[O-]` displayed a TGI of more than 100 µM.

Turning to `Cc1cccc(-c2nc3ccc([N+](=O)[O-])cc3c(=O)o2)c1`, the TGI was more than 100 µM.

On to `CC(C)(C)c1cc(C(P(=O)(c2ccccc2)c2ccccc2)P(=O)(c2ccccc2)c2ccccc2)cc(C(C)(C)C)c1O`, for which the TGI was more than 8.86 µM.

`COC(=O)C(C)(NC(=O)C(CC(=O)OC(C)(C)C)NC(=O)OC(C)(C)C)c1ccccc1` (stereo not drawn) yielded a TGI of more than 100 µM.

`CNn1c(-c2ccccc2)n[nH]c1=O` returned a TGI of more than 100 µM.

`O=[N+]([O-])c1nccn1CC(O)c1ccc(F)cc1` (stereo not drawn) came in with a TGI of more than 100 µM.

Take `COc1ccc(NC(=O)CCc2cc(-c3ccc(O)c(OC)c3)nc(NC#N)n2)cc1`: the TGI was more than 100 µM.

The compound `O=[N+]([O-])c1ccc(/C=N/n2c(CO)nc3ccccc32)o1` gave a TGI of 23.7 µM.

Compound `CCC(=O)NC(Nc1cccc(F)c1C)(C(F)(F)F)C(F)(F)F` returned a TGI of more than 100 µM.

For the compound `C[C@@H]1C[C@H]2[C@@H]3CCC4=CC(=O)C=C[C@]4(C)[C@@]3(Cl)[C@@H](Cl)C[C@]2(C)[C@@]1(O)C(=O)COP(=O)(O)O`, the TGI was more than 100 µM.

`O=C1N=c2ccccc2=C1c1c(O)[nH]c2ccccc12` had a TGI of more than 100 µM.

Turning to `Cc1cc(N(CCC#N)CCC#N)ccc1/C(N=Nc1ccc([N+](=O)[O-])cc1)=N\NC(=O)c1cc(Cl)ccc1C(=O)c1ccccc1`, the TGI is more than 100 µM.

As to `COc1cc(C[S+]2CCCC2)c(SC)cc1C[S+]1CCCC1`, the TGI was more than 100 µM.

As for `CC(=O)OCCn1cnc2nc(Nc3ccccc3)nc(Cl)c21`, the TGI was more than 100 µM.

With `O=S(=O)([O-])c1ccc2c(c1)-c1nc-2nc2[n-]c(nc3nc(nc4[n-]c(n1)c1ccc(S(=O)(=O)[O-])cc41)-c1cc(S(=O)(=O)[O-])ccc1-3)c1ccc(S(=O)(=O)[O-])cc21.[Cu+2].[Na+]`, the GI50 is more than 100 µM and the TGI is more than 100 µM.

Turning to `C=C(C=O)C1CCC2(C(=O)O)CCC3(C)C(CCC4C5(C)CCC(O)C(C)(C)C5CCC43C)C12` (stereo not drawn), the GI50 is 4.87 µM and the TGI is 19.4 µM.

`O=C(CC(=O)Nc1cccc(C(=O)O)c1)Nc1cccc(C(=O)O)c1` gave a TGI of more than 100 µM.

`Oc1ccc2ccccc2c1/C=C/c1ccc2c(Br)cc(Br)c(O)c2n1`: the TGI is 21.7 µM.

`COCCOCc1nc(C#N)c(N)o1` registered a TGI of more than 100 µM.

`COc1ccc(C(C)NNC(=O)c2ccncc2)c(OC)c1` (stereo not drawn): the TGI is more than 100 µM.

As for `COC(=O)c1cc2c(cc1O)[C@@H](NC(C)=O)CCc1cc(OC)c(OC)c(OC)c1-2`, the GI50 is 0.059 µM and the TGI was more than 100 µM.

`CCCCCN=Cc1c(O)c(O)c(C(C)C)c2cc(C)c(-c3c(C)cc4c(C(C)C)c(O)c(O)c(C=NCCCCC)c4c3O)c(O)c12`: the TGI is more than 100 µM.

`CC(=O)OC1Oc2ccccc2-c2oc(=O)c(-c3cc(=O)oc4cc(O)ccc34)cc21` (stereo not drawn): the GI50 was 28.2 µM and the TGI was determined as 99 µM.

Regarding `COc1nc(C(=O)NNC(=O)c2nc(OC)c3ccccc3c2-c2ccccc2)c(-c2ccccc2)c2ccccc12`, the TGI was more than 100 µM.

For the compound `CN(C)Cc1cc(C(=O)/C=C/c2ccc(Cl)cc2)cc(CN(C)C)c1O`, the TGI is 43.9 µM.

Turning to `Cn1c(=O)c2c(nc(Nc3cc(=O)[nH]c(=O)[nH]3)n2Cc2ccccc2)n(C)c1=O`, the GI50 is more than 100 µM and the TGI is more than 100 µM.

`C[As](C)SC1OC(CO)C(O)C1O` (stereo not drawn): the GI50 was 6.01 µM and the TGI was 18.3 µM.

Turning to `COc1ccc2c(c1)C(C)Cc1c(Cl)ncnc1N2C` (stereo not drawn), the GI50 is 0.487 µM and the TGI is more than 81.4 µM.

The compound `Cc1cc(=O)[nH]c(NN2C(Cl)C(=O)C2c2cccc(O)c2)n1` (stereo not drawn) had a TGI of more than 100 µM.

Turning to `CCCCCCCCCC/C=C/CC(=O)SCCNC(=O)CCNC(=O)[C@@H](O)C(C)(C)COP(=O)(O)OP(=O)(O)OCC1OC(n2cnc3c(N)ncnc32)C(O)C1OP(=O)(O)O` (stereo partly drawn), the TGI is more than 10 µM.

Take `CC(=O)c1c2c(cc3c1CC1(Cc4ccccc4C1=O)C3)CCC2` (stereo not drawn): the TGI is more than 100 µM.

On to `CCC[CH2][Sn]([CH2]CCC)([CH2]CCC)[O]C(=O)CC`, for which the GI50 was 0.175 µM and the TGI worked out at 0.379 µM.

As for `NC(CCCCP(=O)(O)O)C(=O)O` (stereo not drawn), the TGI was more than 100 µM.

The compound `COc1ccc2nc3ccc(OC)cc3c(S(=O)CCCl)c2c1` (stereo not drawn) showed a TGI of 30.3 µM.

As for `Cc1ccc(/C=N/n2c(=O)[nH]c3ccccc3c2=O)cc1`, the TGI was more than 100 µM.

As for `COC(=O)C1=C(c2ccc3c(c2)OCO3)O[C@H](c2cc(OC)c(OC)c(OC)c2)[C@H]1COC(C)=O`, the TGI is more than 100 µM.

`C[C@H]1c2cccc(O)c2C(O)=C2C(=O)[C@]3(O)C(O)=C(C(N)=O)C(=O)[C@@H](N(C)C)[C@@H]3[C@@H](O)[C@@H]21`: the GI50 is 3 µM and the TGI came out at 12.5 µM.

Compound `COc1ccc(C2S/C(=C\c3ccccc3O)C(=O)N2NC(=O)Cc2ccccc2)cc1` (stereo not drawn) had a TGI of more than 100 µM.

Turning to `Cc1nc(N)sc1-c1ccnc(Nc2ccc(N3CCOCC3)cc2)n1`, the GI50 was 3.52 µM and the TGI is more than 100 µM.
